Measured values taken from PMC8611056.
These are yes or no findings as the source states them, for the method shown. Some entries that bind do so weakly or less than the wild type.

By UniProt entry, the sequences of proteins in these tests, tags left out. Residues count along the entry.
UniProt P04275, residues 764-2813: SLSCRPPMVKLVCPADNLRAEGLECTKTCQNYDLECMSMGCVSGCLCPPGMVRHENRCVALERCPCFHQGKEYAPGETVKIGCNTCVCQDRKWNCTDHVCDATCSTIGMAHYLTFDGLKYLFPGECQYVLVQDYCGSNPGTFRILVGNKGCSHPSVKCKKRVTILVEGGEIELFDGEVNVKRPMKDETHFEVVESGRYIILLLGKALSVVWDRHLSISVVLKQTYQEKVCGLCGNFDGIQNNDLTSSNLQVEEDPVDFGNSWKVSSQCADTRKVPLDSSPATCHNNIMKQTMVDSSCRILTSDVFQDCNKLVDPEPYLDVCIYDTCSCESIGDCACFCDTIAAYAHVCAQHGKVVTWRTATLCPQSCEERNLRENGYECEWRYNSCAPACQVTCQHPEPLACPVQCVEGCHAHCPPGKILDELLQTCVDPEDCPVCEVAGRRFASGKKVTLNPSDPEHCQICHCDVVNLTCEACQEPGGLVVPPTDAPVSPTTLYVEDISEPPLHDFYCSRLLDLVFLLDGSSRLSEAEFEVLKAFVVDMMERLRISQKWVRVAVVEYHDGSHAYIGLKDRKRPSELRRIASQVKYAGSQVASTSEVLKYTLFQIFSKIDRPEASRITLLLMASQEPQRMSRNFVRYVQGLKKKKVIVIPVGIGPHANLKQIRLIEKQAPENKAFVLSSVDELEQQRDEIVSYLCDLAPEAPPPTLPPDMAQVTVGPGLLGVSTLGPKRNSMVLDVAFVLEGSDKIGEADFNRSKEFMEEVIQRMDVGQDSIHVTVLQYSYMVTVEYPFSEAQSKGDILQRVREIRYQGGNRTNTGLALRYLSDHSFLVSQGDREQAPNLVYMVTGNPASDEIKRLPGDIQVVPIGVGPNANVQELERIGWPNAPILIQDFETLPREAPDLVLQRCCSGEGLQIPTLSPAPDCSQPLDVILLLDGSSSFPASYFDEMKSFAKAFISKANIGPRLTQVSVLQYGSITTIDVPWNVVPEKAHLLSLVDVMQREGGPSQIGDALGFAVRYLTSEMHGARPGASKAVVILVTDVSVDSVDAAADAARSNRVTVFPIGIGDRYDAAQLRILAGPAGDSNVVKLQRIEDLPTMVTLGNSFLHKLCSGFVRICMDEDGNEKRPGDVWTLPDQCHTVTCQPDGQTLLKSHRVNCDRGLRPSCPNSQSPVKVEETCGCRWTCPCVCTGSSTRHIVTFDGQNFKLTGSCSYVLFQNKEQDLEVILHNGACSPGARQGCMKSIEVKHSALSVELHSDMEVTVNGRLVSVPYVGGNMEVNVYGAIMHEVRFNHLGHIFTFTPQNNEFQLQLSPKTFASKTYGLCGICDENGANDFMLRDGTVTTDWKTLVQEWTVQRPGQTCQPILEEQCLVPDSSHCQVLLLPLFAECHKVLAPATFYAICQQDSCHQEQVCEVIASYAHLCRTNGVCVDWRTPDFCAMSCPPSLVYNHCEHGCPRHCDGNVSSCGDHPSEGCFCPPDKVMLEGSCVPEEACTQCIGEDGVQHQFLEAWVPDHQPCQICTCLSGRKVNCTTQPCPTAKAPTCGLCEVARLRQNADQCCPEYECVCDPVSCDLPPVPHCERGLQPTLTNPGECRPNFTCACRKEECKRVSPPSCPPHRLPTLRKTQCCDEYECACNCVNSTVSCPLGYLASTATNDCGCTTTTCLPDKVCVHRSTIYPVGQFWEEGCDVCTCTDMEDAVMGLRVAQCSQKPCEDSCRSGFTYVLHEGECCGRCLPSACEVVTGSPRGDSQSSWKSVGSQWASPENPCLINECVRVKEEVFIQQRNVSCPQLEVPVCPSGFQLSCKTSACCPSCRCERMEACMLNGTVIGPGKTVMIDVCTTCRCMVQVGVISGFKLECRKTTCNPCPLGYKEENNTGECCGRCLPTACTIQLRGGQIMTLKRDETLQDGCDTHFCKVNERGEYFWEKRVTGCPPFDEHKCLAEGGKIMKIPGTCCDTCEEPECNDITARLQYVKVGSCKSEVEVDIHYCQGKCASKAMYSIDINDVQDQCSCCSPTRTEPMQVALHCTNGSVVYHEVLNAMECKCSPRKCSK
UniProt Q53654, residues 31-344: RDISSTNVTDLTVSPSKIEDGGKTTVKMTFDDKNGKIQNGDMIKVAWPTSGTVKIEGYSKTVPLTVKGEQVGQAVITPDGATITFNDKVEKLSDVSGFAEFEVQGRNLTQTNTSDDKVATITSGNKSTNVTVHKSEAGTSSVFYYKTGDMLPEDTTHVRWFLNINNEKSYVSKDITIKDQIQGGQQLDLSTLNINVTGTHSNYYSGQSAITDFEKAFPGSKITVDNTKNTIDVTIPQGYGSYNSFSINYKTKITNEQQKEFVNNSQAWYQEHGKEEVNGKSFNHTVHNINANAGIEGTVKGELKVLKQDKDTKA
UniProt Q2G015, residues 221-559: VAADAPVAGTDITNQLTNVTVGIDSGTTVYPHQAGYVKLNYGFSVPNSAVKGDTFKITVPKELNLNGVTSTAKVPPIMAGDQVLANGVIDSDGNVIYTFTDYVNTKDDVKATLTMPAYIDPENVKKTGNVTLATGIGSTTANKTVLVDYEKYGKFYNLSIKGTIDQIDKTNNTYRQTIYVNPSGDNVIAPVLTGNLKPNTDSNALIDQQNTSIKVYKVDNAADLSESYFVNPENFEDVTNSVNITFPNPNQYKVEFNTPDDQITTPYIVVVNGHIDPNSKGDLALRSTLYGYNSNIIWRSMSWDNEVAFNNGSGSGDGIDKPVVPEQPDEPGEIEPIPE
UniProt Q2FUY2, residues 201-542: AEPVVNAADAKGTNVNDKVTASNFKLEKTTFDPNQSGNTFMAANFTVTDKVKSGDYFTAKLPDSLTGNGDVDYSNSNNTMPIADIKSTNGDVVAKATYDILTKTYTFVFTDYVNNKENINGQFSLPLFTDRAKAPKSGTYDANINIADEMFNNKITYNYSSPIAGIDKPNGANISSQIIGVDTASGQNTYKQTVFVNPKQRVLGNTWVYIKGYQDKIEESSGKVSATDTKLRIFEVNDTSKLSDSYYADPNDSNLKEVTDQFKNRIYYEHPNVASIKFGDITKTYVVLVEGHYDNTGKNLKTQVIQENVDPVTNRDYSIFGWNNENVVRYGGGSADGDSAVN
UniProt P14738, residues 194-511: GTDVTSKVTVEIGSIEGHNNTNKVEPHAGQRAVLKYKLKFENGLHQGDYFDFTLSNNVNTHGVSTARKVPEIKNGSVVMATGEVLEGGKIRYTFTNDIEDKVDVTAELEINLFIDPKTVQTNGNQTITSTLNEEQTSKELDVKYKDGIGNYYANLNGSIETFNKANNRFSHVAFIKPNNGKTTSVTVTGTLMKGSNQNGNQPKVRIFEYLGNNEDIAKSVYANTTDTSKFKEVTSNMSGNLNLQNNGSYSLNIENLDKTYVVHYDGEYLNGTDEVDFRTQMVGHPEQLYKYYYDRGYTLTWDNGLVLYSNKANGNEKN
UniProt Q2FZE9, residues 47-313: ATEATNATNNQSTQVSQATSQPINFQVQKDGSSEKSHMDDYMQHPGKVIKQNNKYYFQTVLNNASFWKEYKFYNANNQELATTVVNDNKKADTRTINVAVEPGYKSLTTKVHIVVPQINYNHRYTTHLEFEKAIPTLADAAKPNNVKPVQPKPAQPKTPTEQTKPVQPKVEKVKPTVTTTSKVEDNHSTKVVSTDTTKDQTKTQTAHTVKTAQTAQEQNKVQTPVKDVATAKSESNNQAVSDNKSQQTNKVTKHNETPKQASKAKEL
UniProt Q2FXJ2, residues 41-660: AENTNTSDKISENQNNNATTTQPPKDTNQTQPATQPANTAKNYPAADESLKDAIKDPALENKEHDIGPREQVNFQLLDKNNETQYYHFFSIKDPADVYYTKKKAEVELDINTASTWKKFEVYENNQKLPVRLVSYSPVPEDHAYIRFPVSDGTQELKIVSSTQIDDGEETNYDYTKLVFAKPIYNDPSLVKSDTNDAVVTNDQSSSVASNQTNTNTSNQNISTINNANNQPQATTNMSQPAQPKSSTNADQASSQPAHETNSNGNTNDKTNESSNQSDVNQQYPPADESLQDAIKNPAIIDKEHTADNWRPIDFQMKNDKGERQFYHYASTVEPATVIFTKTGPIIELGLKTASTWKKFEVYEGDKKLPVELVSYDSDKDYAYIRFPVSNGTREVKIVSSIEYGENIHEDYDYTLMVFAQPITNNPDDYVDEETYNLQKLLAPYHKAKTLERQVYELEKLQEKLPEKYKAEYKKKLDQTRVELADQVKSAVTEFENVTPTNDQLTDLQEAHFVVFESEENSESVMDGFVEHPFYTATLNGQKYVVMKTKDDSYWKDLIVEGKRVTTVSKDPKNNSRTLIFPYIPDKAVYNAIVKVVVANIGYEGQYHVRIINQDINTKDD
UniProt O86488, residues 36-568: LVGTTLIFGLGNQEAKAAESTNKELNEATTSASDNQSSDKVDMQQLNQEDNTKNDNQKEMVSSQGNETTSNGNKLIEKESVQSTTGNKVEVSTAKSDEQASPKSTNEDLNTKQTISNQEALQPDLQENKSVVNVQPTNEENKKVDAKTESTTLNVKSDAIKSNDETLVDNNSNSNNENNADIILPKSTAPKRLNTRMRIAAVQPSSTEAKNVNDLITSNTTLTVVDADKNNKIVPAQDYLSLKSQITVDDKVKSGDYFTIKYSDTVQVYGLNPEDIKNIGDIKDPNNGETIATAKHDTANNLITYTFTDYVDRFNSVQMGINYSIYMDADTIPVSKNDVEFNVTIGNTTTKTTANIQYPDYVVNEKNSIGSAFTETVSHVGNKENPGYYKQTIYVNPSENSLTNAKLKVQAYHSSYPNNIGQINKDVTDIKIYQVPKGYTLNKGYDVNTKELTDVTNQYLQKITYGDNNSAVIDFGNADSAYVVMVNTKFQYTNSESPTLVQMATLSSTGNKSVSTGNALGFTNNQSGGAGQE
UniProt O86489, residues 53-606: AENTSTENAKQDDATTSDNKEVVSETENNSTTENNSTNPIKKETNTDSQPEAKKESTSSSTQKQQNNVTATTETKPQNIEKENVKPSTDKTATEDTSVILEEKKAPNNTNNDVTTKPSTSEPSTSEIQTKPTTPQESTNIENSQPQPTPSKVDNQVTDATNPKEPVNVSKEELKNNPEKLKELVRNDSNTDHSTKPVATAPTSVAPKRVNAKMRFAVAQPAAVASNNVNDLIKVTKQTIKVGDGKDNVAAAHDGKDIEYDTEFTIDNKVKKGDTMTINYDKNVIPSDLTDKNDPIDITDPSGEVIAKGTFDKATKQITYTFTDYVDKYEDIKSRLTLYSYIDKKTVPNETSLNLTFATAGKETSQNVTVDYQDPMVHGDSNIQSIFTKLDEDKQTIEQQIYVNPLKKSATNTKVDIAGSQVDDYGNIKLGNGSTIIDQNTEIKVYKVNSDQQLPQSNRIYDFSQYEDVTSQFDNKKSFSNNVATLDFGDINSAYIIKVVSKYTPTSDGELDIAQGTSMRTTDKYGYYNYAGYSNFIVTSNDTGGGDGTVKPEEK
UniProt Q2FZF0, residues 41-613: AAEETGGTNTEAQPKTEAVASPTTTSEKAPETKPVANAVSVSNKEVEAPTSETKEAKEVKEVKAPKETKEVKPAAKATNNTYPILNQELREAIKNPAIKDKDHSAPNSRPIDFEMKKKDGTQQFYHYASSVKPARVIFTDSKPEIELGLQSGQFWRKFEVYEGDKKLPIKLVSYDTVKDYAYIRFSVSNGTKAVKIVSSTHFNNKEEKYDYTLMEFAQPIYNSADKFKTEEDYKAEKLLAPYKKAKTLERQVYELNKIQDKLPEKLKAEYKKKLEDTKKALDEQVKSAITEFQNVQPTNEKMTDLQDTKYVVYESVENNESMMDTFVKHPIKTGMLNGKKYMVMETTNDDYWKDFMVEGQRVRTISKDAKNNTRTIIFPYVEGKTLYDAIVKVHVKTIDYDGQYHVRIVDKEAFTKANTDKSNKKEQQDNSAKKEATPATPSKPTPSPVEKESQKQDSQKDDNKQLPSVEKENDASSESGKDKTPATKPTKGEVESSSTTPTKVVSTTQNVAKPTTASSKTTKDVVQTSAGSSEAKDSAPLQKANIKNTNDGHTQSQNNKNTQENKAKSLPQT

What was measured:
[1] = target: human von Willebrand factor (human) (UniProt P04275); assay: bacterial adhesion to coated protein (ELISA-type); microtiter wells coated with vWF, incubated with S. aureus SH1000 WT or isdB mutant cells, or with L. lactis with pNZ8037::isdB or empty vector, 1 h at 22 °C; only the target purified
CNA_(31-344) (S. aureus) = CNA_(31-344) (S. aureus) (UniProt Q53654); assay: ELISA; recombinant CWA proteins coated at 1 μg/well (0.1 M sodium carbonate, pH 9.5), 1 μg/well of vWF in PBS for 1 h at 22 °C, detected with rabbit anti-vWF IgG; also with ristocetin-treated vWF on immobilised IsdB; both purified
[2] = target: ClfA_(221-559) (S. aureus) (UniProt Q2G015); assay: as above
[3] = target: ClfB_(201-542) (S. aureus) (UniProt Q2FUY2); assay: as above
[4] = target: FnBPA_(194-511) (S. aureus) (UniProt P14738); assay: as above
[5] = target: FnBPB_(163-480) (S. aureus); assay: as above
[6] = target: IsdA_(47-313) (S. aureus) (UniProt Q2FZE9); assay: as above
[7] = target: IsdH_(41-660) (S. aureus) (UniProt Q2FXJ2); assay: as above
[8] = target: SdrD_(36-568) (S. aureus) (UniProt O86488); assay: as above
[9] = target: SdrE_(53-606) (S. aureus) (UniProt O86489); assay: as above
[10] = target: IsdB released by lysostaphin from S. aureus SH1000 spa grown in RPMI (75 kDa vWF-binding protein) (S. aureus (endogenous in SH1000 spa)) (UniProt Q2FZF0); assay: far-Western, overlay or dot blot; lysostaphin-released cell wall proteins of S. aureus SH1000 spa, reducing SDS-PAGE, nitrocellulose probed with 2 μg/ml human vWF in PBS for 1 h at 22 °C, then anti-vWF IgG; only the binder purified

Question: Which binding [1] does the source give for “IsdB on S. aureus SH1000 cells (from UniProt Q2FZF0 41-613)” here?
Answer: binds

Question: Which binding [1] does the source give for “IsdB ectopically expressed on L. lactis NZ9800 (pNZ8037::isdB) (from UniProt Q2FZF0 41-613)” here?
Answer: binds

Question: “human von Willebrand factor (from UniProt P04275 764-2813)” was tested. Which binding (CNA_(31-344) (S. aureus)) did it give?
Answer: no binding (tested: 1 μg/well of vWF)

Question: And the binding [2]?
Answer: no binding (tested: 1 μg/well of vWF)

Question: And the binding [3]?
Answer: no binding (tested: 1 μg/well of vWF)

Question: What about the binding [4] of the same substance?
Answer: no binding (tested: 1 μg/well of vWF)

Question: What about the binding [5] of the same substance?
Answer: no binding (tested: 1 μg/well of vWF)

Question: What about the binding [6] of the same substance?
Answer: no binding (tested: 1 μg/well of vWF)

Question: And the binding [7]?
Answer: no binding (tested: 1 μg/well of vWF)

Question: And the binding [8]?
Answer: no binding (tested: 1 μg/well of vWF)

Question: And the binding [9]?
Answer: no binding (tested: 1 μg/well of vWF)

Question: What about the binding [10] of the same substance?
Answer: binds
